In the supplement of paper PMC9046079:
Structures can show the parent of a compound that is named as a salt. ± gives the standard deviation of the averaged measurements. Some of the results follow.

The compounds below were run on murine small intestinal organoids (ENR+CD Paneth differentiation) (assay: basal (non-stimulated) secreted lysozyme activity relative to plate median (log10 fold change); higher = more Paneth cell lysozyme secretion). Conditions: 0.4 µM; 6 d.
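Further: ISC-enriched organoid precursors grown as 2.5D pseudo-monolayer on Matrigel, compound given on day 0 and day 3, plate values LOESS-normalized before median fold change, three murine donors.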

| Structure (SMILES) | basal (log10) |
| --- | --- |
| O=C1CC[C@@]2(O)[C@H]3Cc4ccc(O)c5c4[C@@]2(CCN3CC2CC2)[C@H]1O5 [Naltrexone HCl] | -0.00496 ± 0.046 |
| COc1ccc(C(=O)N2CCCC2=O)cc1 [Aniracetam] | 0.0558 ± 0.075 |
| C[C@](O)(COc1ccc(C#N)cc1)C(=O)Nc1ccc(C#N)c(C(F)(F)F)c1 | 0.0277 ± 0.13 |
| Cc1cc(SCc2sc(-c3ccc(C(F)(F)F)c(F)c3)nc2C)ccc1OCC(=O)O | 0.0447 ± 0.044 |
| O=C(O)CNC(=O)c1c(O)c2ccccc2n(Cc2ccccc2)c1=O | 0.0282 ± 0.097 |
| C[C@@H]1O[C@@H](O[C@H]2C[C@@H](O)[C@]3(CO)[C@H]4[C@H](O)C[C@]5(C)[C@@H](C6=CC(=O)OC6)CC[C@]5(O)[C@@H]4CC[C@]3(O)C2)[C@H](O)[C@H](O)[C@H]1O [Ouabain] | 0.0361 ± 0.056 |
| CCc1c(C(=O)C(N)=O)c2c(OCC(=O)O)cccc2n1Cc1ccccc1 | 0.158 ± 0.23 |
| CCC(COC(=O)c1cc(OC)c(OC)c(OC)c1)(c1ccccc1)N(C)C (stereo not drawn) [Trimebutine] | 0.00169 ± 0.042 |
| CN1CCc2cc3c(cc2C1C1OC(=O)c2c1ccc1c2OCO1)OCO3 (single isomer, unassigned; (+)) [(+)-Bicuculline] | 0.0133 ± 0.065 |
| Fc1cc(F)c2c(c1)[C@H]1C=CC[C@H]1C(c1cccnc1)N2 (stereo partly drawn) [Golgicide A] | 0.0661 ± 0.11 |
| Cn1cc(C2=C(c3cn(C4CCN(Cc5ccccn5)CC4)c4ccccc34)C(=O)NC2=O)c2ccccc21 | 0.131 ± 0.065 |
| CCN(CC)C(=O)c1ccc(C2=CC3(CCNCC3)Oc3cccc(O)c32)cc1 | 0.0187 ± 0.045 |
| Cc1sc2c(c1C)C(c1ccc(Cl)cc1)=N[C@@H](CC(=O)OC(C)(C)C)c1nnc(C)n1-2 | -0.296 ± 0.084 |
